Measurements taken from the supplement of paper PMC12217912.
The list shows a part of the results. The full chains were built here from the parent and the listed change. Inactive controls read about 0.05.

B1: TEV protease; numbered along this chain (parent)
chain: MGESLFKGPRDYNPISSSICHLTNESDGHTTSLYGIGFGPFIITNKHLFRRNNGTLVVQSLHGVFKVKDTTTLQQHLVDGRDMIIIRMPKDFPPFPQKLKFREPQREERICLVTTNFQTKSMSSMVSDTSCTFPSGDGIFWKHWIQTKDGQCGSPLVSTRDGFIVGIHSASNFTNTNNYFTSVPKNFMELLTNQEAQQWVSGWRLNADSVLWGGHKVFMVKPEEPFQPVKEATQL

Variants of: B1
Test: raw area under fraction-flipped curve 0-4 h after induction (AUC4h, not background-subtracted), DNA-recorder readout of cleavage of the substrate (dimensionless); higher = more cleavage of the substrate by the protease variant
Settings: temperature: 34 °C; time window: 0-4 h after rhamnose induction
Procedure: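 In vivo DNA recorder in E. coli TOP10(DE3) ΔrhaA at 34 °C. Each TEVp single-site mutant (parent TEVp 0) is paired with a single-site variant of the 7-mer TEVs (canonical ENLYFQ|S). The substrate sits between flexible linkers in a Bxb1-sfGFP-TEVs-SsrA fusion, so cleavage stabilises Bxb1 and speeds flipping of a recombination array, read by NGS. The value is the raw area under the fraction-flipped curve over 0-4 h after rhamnose induction (AUC4h), with ≥20 reads per time point. It is not background-subtracted; inactive controls average about 0.047.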
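Further: Bxb1 expression induced with 0.2% (w/v) L-rhamnose at OD600 near 0.5, cultures sampled hourly, flipped fraction per protease–substrate barcode pair counted by paired-end Illumina sequencing.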

Row | Variant | area with substrate ENCYFQS | area with substrate ENDYFQS | area with substrate ENEYFQS | area with substrate ENFYFQS | area with substrate ENGYFQS | area with substrate ENHYFQS | area with substrate ENMYFQS | area with substrate ENNYFQS | area with substrate ENPYFQS | area with substrate ENQYFQS | area with substrate ENRYFQS | area with substrate ENSYFQS | area with substrate ENVYFQS | area with substrate ENIYFQS | area with substrate ENTYFQS | area with substrate ENWYFQS | area with substrate ENYYFQS | area with substrate ENKYFQS | area with substrate ENAYFQS
1 | M83S | 0.0578 | 0.0605 | 0.0602 | 0.0642 | 0.0582 | 0.0531 | 0.0532 | 0.0585 | 0.0635 | 0.0548 | 0.0566 | 0.0595 | 0.0604 |  |  |  |  |  | 
2 | M83A | 0.0613 | 0.077 | 0.0664 | 0.0684 | 0.0569 | 0.0626 |  | 0.0601 | 0.0474 | 0.0522 | 0.0595 | 0.0583 | 0.0634 | 0.0875 | 0.0606 | 0.0617 | 0.0575 |  | 
3 | M83Y | 0.0553 |  |  |  |  | 0.0498 |  | 0.0604 |  | 0.041 |  | 0.0538 |  |  |  |  |  |  | 
4 | K66C | 0.0679 |  |  | 0.0679 | 0.0698 |  | 0.0721 | 0.0723 |  | 0.0637 |  | 0.0607 | 0.0807 | 0.117 | 0.0706 |  | 0.065 |  | 
5 | N193R | 0.0442 |  | 0.0578 |  | 0.0521 |  |  |  |  |  | 0.059 | 0.0615 |  |  |  |  |  | 0.061 | 
6 | N172Y | 0.0635 |  | 0.0592 |  | 0.0492 |  |  | 0.0707 |  | 0.0675 | 0.0589 |  | 0.0606 |  |  |  |  |  | 
7 | T30V | 0.0693 | 0.0281 | 0.108 |  | 0.0741 | 0.0435 |  | 0.0536 |  |  |  | 0.0743 |  |  |  | 0.0723 |  |  | 
8 | L235N |  |  |  |  | 0.0906 | 0.0492 |  |  |  | 0.0653 |  | 0.0626 | 0.0787 |  | 0.0567 |  |  |  | 0.069
9 | L235A |  | 0.067 | 0.068 |  | 0.0613 | 0.0402 |  | 0.0546 |  | 0.0435 |  | 0.0585 | 0.0689 | 0.0979 | 0.09 | 0.0605 |  |  | 0.0316
10 | L235S |  | 0.0752 |  |  | 0.0636 | 0.0611 |  |  |  | 0.0779 |  |  |  |  |  |  |  | 0.0638 | 0.0683
11 | L235I |  | 0.0672 | 0.0598 | 0.0601 | 0.068 | 0.0616 |  |  | 0.0545 | 0.0538 |  | 0.0349 |  | 0.0931 |  |  | 0.0613 |  | 0.0526
12 | I86A | 0.0594 | 0.0547 | 0.0505 | 0.0397 |  | 0.05 |  | 0.0566 |  | 0.0528 | 0.0534 | 0.0587 | 0.0643 |  | 0.0558 | 0.0462 |  |  | 
13 | V126L | 0.0674 | 0.0574 |  | 0.0525 |  |  |  |  | 0.053 |  |  | 0.0587 | 0.0932 |  |  | 0.0614 |  |  | 
14 | R51G | 0.0607 | 0.059 | 0.0584 |  | 0.0713 |  | 0.103 | 0.019 |  | 0.0624 |  |  | 0.0776 |  |  |  |  |  | 
15 | Q151F | 0.0619 |  | 0.0622 |  | 0.0554 |  |  |  | 0.0609 |  |  | 0.0311 |  |  |  |  | 0.0453 | 0.0578 | 
16 | T72Y | 0.0636 | 0.0498 | 0.0607 | 0.0541 | 0.0623 |  | 0.071 | 0.0513 | 0.0657 | 0.0666 | 0.065 | 0.0722 | 0.0664 | 0.0661 | 0.0592 |  | 0.0408 |  | 
17 | F6K | 0.078 | 0.0557 | 0.08 |  |  | 0.0564 |  |  |  |  | 0.0568 |  |  | 0.118 |  |  |  |  | 

Row | Variant | area with substrate ENCYFQS | area with substrate ENDYFQS | area with substrate ENEYFQS | area with substrate ENFYFQS | area with substrate ENGYFQS | area with substrate ENHYFQS | area with substrate ENMYFQS | area with substrate ENNYFQS | area with substrate ENPYFQS | area with substrate ENQYFQS | area with substrate ENRYFQS | area with substrate ENSYFQS | area with substrate ENVYFQS | area with substrate ENIYFQS | area with substrate ENTYFQS | area with substrate ENWYFQS | area with substrate ENYYFQS | area with substrate ENKYFQS | area with substrate ENAYFQS
18 | I42P | 0.0514 | 0.0276 | 0.047 | 0.0538 | 0.0412 | 0.053 |  |  |  | 0.0479 |  | 0.0435 | 0.0368 | 0.0738 | 0.0434 |  | 0.0489 |  | 
19 | F187L | 0.0547 | 0.0562 | 0.0529 |  |  | 0.0537 | 0.0747 | 0.0627 |  | 0.0577 | 0.0696 | 0.0661 | 0.118 | 0.124 | 0.0659 | 0.0398 | 0.057 | 0.0606 | 
20 | K221C | 0.0738 | 0.0601 |  | 0.079 | 0.0654 | 0.0657 | 0.0629 |  | 0.0603 | 0.0624 | 0.0566 | 0.06 | 0.075 | 0.093 | 0.07 |  |  | 0.0675 | 0.0602
21 | K221M | 0.0639 | 0.0528 | 0.068 | 0.052 | 0.0672 | 0.0556 | 0.0434 | 0.0697 | 0.0416 | 0.0605 |  |  |  | 0.0722 | 0.0536 | 0.0438 |  |  | 0.059
22 | K221H | 0.0704 | 0.0604 | 0.0657 | 0.0501 |  | 0.0576 |  | 0.0548 | 0.0605 | 0.0553 |  | 0.0586 | 0.071 |  | 0.0615 | 0.0594 |  | 0.0395 | 0.0709
23 | L190C | 0.0766 | 0.0604 | 0.0627 | 0.06 |  | 0.0573 |  |  |  | 0.0558 |  | 0.0693 | 0.0999 | 0.102 | 0.0561 |  |  |  | 
24 | F173R | 0.063 |  | 0.0784 | 0.102 |  | 0.065 |  | 0.0636 |  | 0.0426 |  | 0.0765 |  |  | 0.0572 |  | 0.0829 |  | 
25 | K100A | 0.0675 | 0.0538 | 0.0644 |  | 0.0786 |  |  | 0.0539 |  | 0.0552 |  | 0.0615 | 0.0602 | 0.123 |  | 0.0438 |  |  | 
26 | S182L | 0.0482 | 0.0628 |  |  |  |  |  |  | 0.0534 | 0.0568 |  |  | 0.0628 |  | 0.0617 |  | 0.068 |  | 
27 | I84P | 0.0176 | 0.0267 | 0.0367 |  |  |  |  |  |  | 0.0366 |  |  | 0.0268 |  |  |  | 0.0376 |  | 
28 | P93Q | 0.0754 | 0.0507 | 0.054 |  |  |  |  |  | 0.0698 | 0.0572 | 0.0586 | 0.0669 | 0.0753 |  |  | 0.0791 |  |  | 
29 | N186Q | 0.0693 |  |  |  | 0.0796 |  |  | 0.0568 |  | 0.0546 |  |  | 0.093 |  | 0.0539 |  | 0.0586 |  | 
30 | T159A | 0.0644 |  | 0.0648 |  | 0.0683 |  |  |  | 0.0411 |  | 0.0457 | 0.0544 |  |  |  | 0.0462 | 0.0394 |  | 
31 | T233C |  | 0.0631 | 0.0625 | 0.0523 | 0.0552 | 0.0663 |  |  | 0.0662 | 0.0635 | 0.0479 | 0.0599 |  | 0.0951 | 0.0658 |  | 0.0662 | 0.0644 | 0.0596
32 | Q234M | 0.0623 | 0.0867 |  |  | 0.0592 |  |  |  |  | 0.0588 |  | 0.063 | 0.0632 |  | 0.0602 |  |  |  | 0.0676
33 | Q234C | 0.0433 | 0.0649 |  | 0.0608 |  | 0.0594 |  | 0.0621 | 0.0562 | 0.0647 |  | 0.0682 | 0.0625 |  | 0.0622 | 0.0554 | 0.0648 |  | 0.0664
34 | Q234D | 0.0659 | 0.0608 | 0.0382 |  | 0.0551 | 0.0481 | 0.0877 |  |  |  | 0.0546 | 0.0678 | 0.0651 |  | 0.0733 |  |  |  | 0.0564
